# Experimental data as given in PubChem BioAssay AID463173 (ICCB-Longwood Screening Facility, Harvard Medical School, 2010).
# The campaign covered roughly 52,000 compounds. About 4,300 (8.3%) were called active. Cut-off read from the data, not from the text of the source: active = survival mostly below about 52% (no sharp cut-off); inactive = mostly above about 56%. Some of the results follow.
# Tested on: DeltatarO mutant
# Assay: S. aureus survival, RN4220 and DeltatarO strains – OD600, teichoic acid synthesis inhibitors, primary screen (AID 463173)
# Details: S. aureus RN4220 wild type/DeltatarO growth, OD600, 18 h, stronger effect = lower value, screened at 18.75 µg/mL (by protocol)
row,Structure (SMILES),survival
1,CCN1C(=O)c2ccccc2Sc2ccc(NC(=O)Nc3ccc(Br)c(C)c3)cc21,inactive: 71%
2,COc1ccc(-c2cc(NCc3ccc(C)cc3)n3cnnc3n2)cc1,inactive: 83%
3,COc1ccc(Nc2nc(N)nc(CSc3nc4ccccc4s3)n2)cc1,active: 21%
4,COc1cccc(NC(=O)C(=O)NCCc2sc(-c3cccc(C)c3)nc2C)c1,inactive: 120%
5,O=S1(=O)c2ccccc2N(Cc2ccccc2Cl)c2ccccc21,inactive: 99%
6,COc1ccc(CCNc2nc(SCc3ccccc3Cl)nc3ccccc23)cc1OC,inactive: 102%
7,CCOC(=O)c1ccc(N2C(=O)c3[nH]nc(-c4ccccc4)c3C2c2cccs2)cc1 (stereo not drawn),inactive: 123%
8,COc1ccc(NC(=O)Cn2c(=O)n(CCc3ccccc3)c(=O)c3sc4ccccc4c32)cc1,inactive: 76%
9,Cc1cc(C)nc(-n2nc(C)c3c2NC(=O)CC3c2ccccc2OC(C)C)n1 (stereo not drawn),inactive: 76%
10,O=C(CSc1nc2c(c(=O)[nH]1)CN(Cc1ccc(F)cc1)CC2)Nc1cccc(C(F)(F)F)c1,inactive: 68%
11,Cc1ccccc1NC(=O)Cn1c(=O)n(CCCCC(=O)NCc2ccccc2Cl)c(=O)c2ccccc21,inactive: 92%
12,O=C(CN1C(=O)COc2ccc(S(=O)(=O)Nc3ccccc3)cc21)NCc1ccccc1Cl,inactive: 102%
13,CCN(CC)S(=O)(=O)c1ccc(C(=O)NC2CC(=O)N(c3ccc4c(c3)OCCO4)C2)cc1 (stereo not drawn),inactive: 80%
14,Cc1c(C(=O)OC2CCCCCC2)[nH]c2c1C(=O)CC(c1ccccc1Cl)C2 (stereo not drawn),inactive: 86%
15,CCOC(=O)c1c(S(=O)(=O)N2CCC(C(=O)Nc3cccc(C#N)c3)CC2)c(C)n(C)c1C,inactive: 115%
16,CCOc1ccc(OCC)c(NC(=O)CN(c2ccc(C)cc2)S(=O)(=O)c2c(C)n[nH]c2C)c1,active: 32%
17,CCOc1ccc(NC(=O)C(CC)n2nc(-c3ccc(C)c(C)c3)ccc2=O)cc1 (stereo not drawn),inactive: 68%
18,COc1ccccc1N1CCN(C(c2ccccc2)c2nnc(-c3ccccc3Cl)o2)CC1 (stereo not drawn),active: 32%
19,N#CC1C(C#N)N2CCCN2C1c1ccc(Cl)cc1 (stereo not drawn),inactive: 105%
20,Cc1ccc(NC(=O)Cn2c(=O)n(Cc3nc(-c4ccccc4)no3)c(=O)c3cc4c(cc32)OCO4)cc1C,inactive: 77%
21,Cc1ccc(C)c(NC(=O)C2CCCN(S(=O)(=O)c3cccc4nsnc34)C2)c1 (stereo not drawn),inactive: 87%
22,CCC1CCCCN1C(=O)Cn1c(=O)n(-c2ccccc2C(F)(F)F)c(=O)c2c(C)c(C(=O)N(C)C)sc21 (stereo not drawn),inactive: 80%
23,CCOC(=O)c1sc(N2C(=O)c3oc4ccc(F)cc4c(=O)c3C2c2cccc(OC)c2)nc1C (stereo not drawn),inactive: 75%
